# ChEMBL document CHEMBL4888484, “Replenishing the malaria drug discovery pipeline: Screening and hit evaluation of the MMV Hit Generation Library 1 (HGL1) against asexual blood stage Plasmodium falciparum ,using a nano luciferase reporter read-out” (2022)
# The campaign covered roughly 150,000 compounds. About 540 (0.36%) showed an effect of 50% or more. The list shows a part of the results.
# Tested on: Plasmodium falciparum
# Assay: Primary screen in NF54 nanoGlo assay, in single point, at 2uM, 72h; a lower Z score goes with more inhibition
# Assay type: functional, Erythrocyte
# Conditions: timepoint 72 hour
Compound,% Inhibition [%],Z score
CO[C@H]1CCN(Cc2sc(C)nc2C)C1,-2,0.27
N#CCC(=O)NC(=O)Nc1ccccc1,-5,0.64
CCNC(=O)C(C)(C)CNC(=O)C(C)N1C(C)CCC1C (stereo not given),-17,2.16
C=CCn1c(C)c(CC(=O)NCc2ccccc2C)c(=O)n2nc(-c3ccc(C)cc3)nc12,-7,0.81
O=C(C(=O)N1CCCO[C@@H](CN2CCOCC2)C1)c1cccnc1,11,-1.47
CCNC(=O)[C@H](C)NS(=O)(=O)c1sc2ccccc2c1Cl,-9,0.95
CC(C)OC[C@H]1CN(C(=O)CCn2ncn(C)c2=O)CCO1,0,-0.06
Cc1nc2n(n1)CCN(Cc1ncc(-c3ccccc3)o1)C2,-12,1.46
O=C(CC1CCCC1)Nc1nc(-c2cccc3ccccc23)cs1,-9,1.34
Cc1cc(CNC(=O)Nc2nnn(C(C)C)n2)ccn1,2,-0.32
CCOC(=O)c1coc(N(C)CCc2scnc2C)n1,-18,2.38
Cc1ccc(CN(C)C(=O)c2ccc3c(c2)OCO3)o1,-11,1.43
CC(C)C(=O)N1CCc2nc[nH]c2[C@@H]1C1CCN(Cc2ccccc2)CC1,-6,0.89
Cc1ccc(S(=O)(=O)N[C@H](C(=O)NCCCc2nnc3n2CCCC3)C(C)C)cc1C,-5,1.09
CCOC(=O)c1noc2ncnc(NCCc3ccc(Cl)cc3)c12,2,-0.35
COc1cc(C(=O)Nc2ccc3c(c2)nc(CN2CCCCCC2)n3C)cc(OC)c1OC,3,-0.53
CC[C@H](NS(=O)(=O)N1CCC(OC)CC1)c1ncnn1CC,-11,1.44
COc1cc(=O)n2c(c1C(=O)Nc1ccc(Cl)c(C)c1)CCCC2,-5,0.82
Cc1ccccc1N1C(=O)CN(C(=O)C2COc3ccccc3O2)CC1C (stereo not given),-1,0.18
Cn1cccc1C(=O)N1C[C@H]2CN(C(=O)c3ccccc3)C[C@@]2(CO)C1,-16,2.12
O=C(CN(C1CCCC1)C1CCCC1)Nc1ccc(Br)cc1F,1,-0.09
Cn1ncc(-c2ncc(C(F)(F)F)cc2Cl)c1NC(=O)c1ccccc1Cl,29,-3.7

Compound,% Inhibition [%],Z score
C#CC(NC(=O)c1cnc2n1CCOC2)C1CCCO1 (stereo not given),-1,0.18
CCn1cc(S(=O)(=O)N2CCC(C)(c3noc(C)n3)CC2)cn1,-5,0.62
COc1ccc(N2CCN(C(=O)c3ccc(NCCc4ccc(OC)c(OC)c4)c(S(=O)(=O)Nc4cccc(OC)c4)c3)CC2)cc1,24,-2.9
CO[C@H]1CN(C)C[C@@H]1NS(=O)(=O)c1ccccc1C,1,-0.24
O=C(COc1ccc(F)cc1)N1CCC[C@H](CN2CCCC2)CC1,-1,0.2
Cc1ccc(-c2noc(-c3cn(CC(=O)Nc4ccccc4F)c4nc(C)ccc4c3=O)n2)cc1,21,-1.88
COc1cc(C)nc(NCCn2ccc(=O)[nH]c2=O)n1,2,-0.34
C[C@@H]1CN(CC(=O)N(C)Cc2cc3cc(F)ccc3[nH]2)C[C@H](C)O1,-7,1.28
O=C(Cc1n[nH]c(=O)c2ccccc12)N1CC[C@@]2(O)CCCC[C@H]2C1,-10,1.23
COc1ccc(CN(C[C@H](O)COC(C)C)C(C)C)cc1OC,-11,1.26
c1cc2occc2c(NCC2(C3CC3)CC2)n1,-9,1.4
CC(C)C(=O)N(CCCN1CCCC1)[C@H]1CCCN(C(=O)c2cscn2)C1,-2,0.37
COCC[C@H]1CN(C(=O)CC(=O)Nc2ccccc2C)CCO1,2,-0.21
CCc1nc2c(NS(=O)(=O)c3c(C)noc3C)cccn2n1,-1,0.11
CC(C)CC(=O)N1CC[C@@H](CC(=O)O)[C@@H](Cc2nc3ccccc3n2C)C1,-7,0.88
CCOC(=O)C(C)(C)c1csc([C@H](C)OC)n1,5,-0.46
CC(=O)N(CCN1CCOCC1)[C@H]1CCN(C(=O)C2CCCC2)C1,-2,0.45
CC(C)NC(=O)[C@H](C)Oc1ccc(O)cc1,2,-0.27
O=C(CCC1CCC1)NS(=O)(=O)[C@H]1CCOC1,-12,2.24
C[C@@H](NC(=O)NCCc1ccnn1C)c1cc2ccccc2o1,-2,0.24
CCOc1cc(CNCc2ccncc2)ccc1OCc1ccc(Cl)cc1,-8,0.98
Cc1noc(C)c1C(=O)OC(C(=O)N1CC(C)CC(C)C1)C(C)C (stereo not given),-5,0.57

Compound,% Inhibition [%],Z score
N#Cc1nccnc1N1CCCN(C(=O)Cc2cccc(F)c2)CC1,-9,1.17
Cc1nonc1C(=O)NC(c1cnn(C)c1)[C@H]1C[C@H](O)C1 (stereo not given in full),-7,1.39
CC1(C)[C@@H](NC(=O)Nc2ccnnc2)[C@@H]1c1ccccc1,-13,1.29
c1cnc(N2CCN(Cc3nc(-c4ccncc4)no3)CC2)nc1,2,-0.29
CC1C(C)S(=O)(=O)CCN1CC1CC1 (stereo not given),-6,0.68
Cc1ccc2c(c1)CCCN2C(=O)c1ccc2c(c1)NC(=O)CO2,-10,1.7
CCn1nc(C)c(CNc2nc(C)no2)c1C,-2,0.42
Cc1nn(-c2ccccc2)c2c1[C@@H](c1ccc(Cl)cc1)N(c1ccccc1)C(=O)N2,-13,2.46
C[C@H]1Cc2cc(-n3cnnc3)ccc2O1,-12,1.62
O=C(c1ccc2c(c1)CN(CC1CCCCC1)CCO2)N1CCCC1,-6,0.9
CCCN(Cc1c(-c2ccccc2)nn(C)c1N(C)C)C(=O)c1ccc(C)cc1,-2,0.46
C[C@@H](O)CNC(=O)NCc1cc(Cl)cc(Cl)c1OC(F)F,-13,2.38
Cc1ccc(N(C(=O)COCc2ccnn2C)C2CCCCC2)nc1,-31,3.13
CCCCn1nc(C2CC2)nc1CCCn1cncn1,-6,1.11
Cc1cccc(C(=O)Nc2ccnn2Cc2c(Cl)cccc2Cl)n1,-2,0.33
CCC(CC)C(=O)N1CCC(C(=O)O)C2CCCCC21 (stereo not given),-2,0.46
Cc1cccc(OCC(=O)N2CCCN(c3cc(=O)n(C)c(=O)n3C)CC2)c1,1,-0.17
CCC[C@H]1C=CCN1C(=O)CCn1ccnc1CC,-12,1.25
CN(C)c1ccccc1NC(=O)Cn1ccc(=O)[nH]c1=O,-5,0.92
O=C(CN1CCOC1=O)N1CCC2(CC1)CC(=O)N(Cc1ccccc1)C2,3,-0.4
Cc1cc(C)cc(OCc2cc(=O)n3ccccc3n2)c1,-1,0.09
COCCCN(Cc1c(C)nn(-c2ccccc2)c1N1CCN(C)CC1)C(=O)Nc1ccc(Cl)c(Cl)c1,10,-0.95

Compound,% Inhibition [%],Z score
CC[C@H](OC)C(=O)NC1(CN2CCCCC2)CCCCC1,-6,0.65
O=C(COc1ccc2ccccc2c1)N1CCC2(CC1)CC2(F)F,9,-1.2
Cc1ccc(N(C)S(=O)(=O)c2cc(C)oc2C)c(C)c1,-1,0.27
COc1ccc(C(=O)N2CCC[C@H](C(=O)Nc3cc(F)cc(F)c3)C2)c2ccccc12,6,-0.58
C[C@@H](C(=O)Nc1cccc(Cl)c1)N1CCC(c2nnc3n2CCC3)CC1,-5,1.1
CC(C)(C)N1C[C@@H](c2nc3ccccc3n2Cc2ccc3ccccc3c2)CC1=O,-5,0.63
CC(=O)N(C(C)=O)c1c(-c2nnc(C)o2)sc2nc(C)cc(C)c12,13,-1.57
Cc1nc(CC(=O)N2CCc3cc(C(=O)N(C)C)n(C)c3C2)cs1,-4,0.77
COCc1noc(CN2CC(C)OCC2c2ccccc2)n1 (stereo not given),0,0.01
CNC(=O)c1cccc(C(=O)N2Cc3ccccc3N(C)C[C@@H]2C)c1,-21,3.97
CCc1ccc(O)c(NC(=O)C2([C@]3(O)CCCNC3)CCC2)c1,-12,1.31
Cc1cc(C(=O)N(CCN(C)C)C2CCCCC2)nc(C)n1,3,-0.54
Cc1cnc(COC(=O)c2scnc2C)o1,11,-1.53
C[C@](O)(CC(=O)NCCC1=CCCCC1)C(F)(F)F,-6,1.03
CCNC(=O)N1CC(C(=O)NCc2ccc3c(c2)OCO3)C(c2ccc(OC)cc2OC)C1 (stereo not given),-11,1.04
Cc1cc(C)n2nc(CCCNC(=O)c3cnn(-c4cccc(Cl)c4)c3C(C)C)c(C#N)c2n1,-17,3.15
CCN(CC(=O)NC(C)C)Cc1nc(C)no1,-1,0.11
O=C1c2ccccc2C(=O)N1[C@H]1CCN(c2ccccn2)C1,-16,1.82
CC(C)N(CC(=O)N1CCn2cccc2[C@H]1c1ccccc1Cl)C(=O)c1cccc(F)c1,10,-1.28
